The campaign covered roughly 330,000 compounds. About 1,700 (0.52%) were called active. Inconclusive results, whose numbers are uncertain, are shown with a selection of clear calls. Calls come from the whole dose curve; as a rule, active = well fitted inhibition curve with a large enough effect; inconclusive = small, poorly fitted or top-dose-only effect; inactive = no such curve, though single readings can be large or run the other way. Where the call is inconclusive, the potency comes from a doubtful curve fit.
Molecular target: Beta-lactamase (Escherichia coli (strain K12)) (UniProt P00811)
Assay: qHTS Inhibitors of AmpC Beta-Lactamase (assay without detergent); note: nearly all actives have a fitted effect of over 20% in size;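 for activity change, negative = inhibition: plate controls were no compound for no effect and no enzyme for full effect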
Conditions: AmpC nitrocefin hydrolysis, absorbance 480 nm, 0.0001% Triton; activity change, negative = inhibition: at 57.1 µM (top of the series) unless noted
In short: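 20 mM phosphate pH 7.0 + 0.01% (detergent screen) or 0.0001% Triton X-100; 5.3 nM AmpC reagent; cpd preinc 15 min RT; nitrocefin (800 uM stock) to start; A480 q20 s × 4 min; Activity was normalised to no-enzyme and no-compound control wells.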
Potency is the fitted concentration of half-maximal effect; tags give direction and shape of the fitted curve.

UniProt P00811, sequence (P00811 whole entry, looked up): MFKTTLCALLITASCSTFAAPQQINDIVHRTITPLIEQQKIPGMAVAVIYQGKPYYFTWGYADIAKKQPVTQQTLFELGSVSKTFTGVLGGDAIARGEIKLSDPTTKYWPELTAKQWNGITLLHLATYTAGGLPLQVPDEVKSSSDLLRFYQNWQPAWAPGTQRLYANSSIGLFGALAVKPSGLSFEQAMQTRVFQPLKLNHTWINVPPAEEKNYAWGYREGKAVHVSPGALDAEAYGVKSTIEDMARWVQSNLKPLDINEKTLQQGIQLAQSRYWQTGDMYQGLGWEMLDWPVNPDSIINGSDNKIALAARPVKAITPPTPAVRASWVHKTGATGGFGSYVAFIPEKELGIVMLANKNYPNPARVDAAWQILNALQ

Structure (SMILES)	Potency	activity change, negative = inhibition
CC(=O)Nc1ccc(S(=O)(=O)NCc2ccc3[nH]c(C)cc3c2)cc1	inconclusive: 100 µM [inhibitor, partial curve, poor fit]	
COC(=O)C1CSC(C(=O)OC)N1C(=O)CN1CC(C)OC(C)C1 (stereo not given)	inconclusive: 1.12 µM [inhibitor, partial curve, poor fit]	
Cn1cnnc1SCC(=O)c1cc2ccccc2o1		inactive: -15.4% [at 11.4 µM]
O=C(Nc1ccc(S(=O)(=O)Nc2nccs2)cc1)c1ccc(N2C(=O)c3ccccc3C2=O)cc1	inconclusive: 15.8 µM [inhibitor, partial curve]	
O=C(NCc1ccco1)C(c1ccccc1)N(Cc1ccccc1)C(=O)Cn1nnc2ccccc21 (stereo not given)		inactive: -18.1%
CC1(C)CC2CC(C)(CN2S(=O)(=O)c2ccc(C(=O)Nc3cc(S(=O)(=O)N4CCOCC4)ccc3Cl)cc2)C1 (stereo not given)	inconclusive: 3.55 µM [inhibitor, partial curve]	
COc1cc(SC)ccc1C(=O)NNC(=O)c1cc(C)oc1C		inactive: -12.4%
COc1cccc(/C=N/c2oc(-c3ccccc3)cc2C#N)c1O	inconclusive: 0.126 µM [inhibitor, full curve, poor fit]	
Cc1ccc2nc(N/C(=N/S(=O)(=O)c3cccs3)c3ccccc3Cl)sc2c1	active: 12.6 µM	
CC(C)Cn1c(N)c(C(=O)COC(=O)c2ccc(O)cc2O)c(=O)n(C)c1=O	inconclusive: 31.6 µM [inhibitor, single point]	
O=C(Nc1nnc(-c2ccc3c(c2)CCCC3)o1)c1ccc(Cl)cc1Cl	active: 35.5 µM	
O=C(CNC(=O)/C(=C/c1ccccc1)NC(=O)c1ccc(Br)cc1)OCc1ccccc1	active: 3.55 µM	
CS(=O)(=O)N(CC(=O)NC1CCCCCC1)Cc1ccccc1	inconclusive: 1.12 µM [inhibitor, partial curve, poor fit]	
COC(=O)c1c(SCC(=O)Nc2ccc(C)cc2)nc(=O)[nH]c1C	inconclusive: 28.2 µM [inhibitor, single point]	
O=C(NCC1CCCO1)c1cc(S(=O)(=O)N2CCCCC2)ccc1Cl (stereo not given)		inactive: -6.82%
COc1ccc(C(=O)NCCN2CCCC2)cc1		inactive: -14.9%
CSc1nsc(/C=C/Nc2ccc(C)c(C)c2)c1C#N	inconclusive: 0.631 µM [inhibitor, full curve, poor fit]	
Cc1ccc([N+](=O)[O-])cc1-c1ccc(/C=C(\C#N)c2[nH]nc(N)c2C#N)o1	active: 31.6 µM	
CCCCc1ccc(NS(=O)(=O)N(C)C)cc1		inactive: -14.3%
Cc1ccc(-c2cc(C(=O)NCCCn3ccnc3)no2)cc1		inactive: 0.861%
Cn1c(SCC(=O)N2CCOCC2)nnc1-c1ccccc1	inconclusive: 0.141 µM [inhibitor, full curve, poor fit]	
COC(=O)C1(Cc2cc(-c3ccc([N+](=O)[O-])cc3)no2)CCN(C(=O)OC(C)(C)C)CC1		inactive: 70.7%
O=C(Nc1cccc(Cl)c1)Nc1nnc(CC2=CCCCC2)s1	inconclusive: 8.91 µM [inhibitor, partial curve]	

Structure (SMILES)	Potency	activity change, negative = inhibition
Cc1c(C(=O)N2CCC2)oc2ccc(Br)cc12	inconclusive: 39.8 µM [inhibitor, single point]	
CCCCOc1ccc(-c2c(C#N)c(N)[nH]c(=S)c2C#N)cc1	inconclusive: 10 µM [inhibitor, partial curve]	
COc1ccc(NC(=O)CN2CCCC(C)C2)c([N+](=O)[O-])c1 (stereo not given)	inconclusive: 8.91 µM [inhibitor, single point]	
Cn1ccnc1C(O)c1cc(C(C)(C)C)c(O)c(C(C)(C)C)c1 (stereo not given)		inactive: 20.6%
Cc1ccc(S(=O)(=O)c2nc(S(C)(=O)=O)sc2NCc2ccc3c(c2)OCO3)cc1	inconclusive: 14.1 µM [inhibitor, partial curve, poor fit]	
Cc1ccc(N2C(=O)C(Cl)=C(Nc3c(C)n(C)n(-c4ccccc4)c3=O)C2=O)cc1	inconclusive: 3.98 µM [inhibitor, single point]	
O=C(COc1ccccc1)Nc1ccccc1Oc1ccccc1		inactive: -32.2%
Cc1ccn2cc(-c3cccc([N+](=O)[O-])c3)nc2c1	inconclusive: 17.8 µM [inhibitor, partial curve]	
O=C(NCC(c1ccco1)N1CCc2ccccc21)C(=O)Nc1ccccc1 (stereo not given)	active: 10 µM	
CC/C(=N/Nc1cccc(C)c1)c1cnnc(SC)n1	inconclusive: 35.5 µM [inhibitor, single point]	
CCCCNC(=O)c1ccc(SCC(=O)N(CC)CC)c([N+](=O)[O-])c1		inactive: -5.64%
Nc1nonc1-n1nnc(C(=O)N/N=C/c2ccccc2Cl)c1-c1ccc2c(c1)OCO2	inconclusive: 14.1 µM [inhibitor, partial curve]	
CC(C)C1OC(c2cccc(NC(=O)c3cccs3)c2)OCC1(C)C (stereo not given)	inconclusive: 17.8 µM [inhibitor, partial curve]	
COc1ccc(NC(=S)Nc2ccccc2)cc1	inactive	
CC(C)CN(C(=O)COC(=O)c1ccc(Cl)c(N)c1)c1c(N)n(Cc2ccccc2)c(=O)[nH]c1=O	active: 28.2 µM	
CN1c2ccccc2Oc2c(c(=O)n(C)c(=O)n2C)C1c1cccc([N+](=O)[O-])c1 (stereo not given)		inactive: 37.2%
CCC(=O)c1cc(F)c(N2CCN(C(=O)c3ccco3)CC2)cc1C	inconclusive: 6.31 µM [inhibitor, full curve, poor fit]	
CCC(=NC1CC1)c1c(O)n(C2CCCCC2)c(=O)[nH]c1=O	inconclusive: 4.47 µM [inhibitor, single point]	
COc1cc(C2Nc3cccc4cccc(c34)N2)cc(OC)c1O	active: 31.6 µM	
CC(=O)NC(Cc1c[nH]c2ccccc12)C(=O)OCC(=O)Nc1cc(C)on1 (stereo not given)	inconclusive: 0.141 µM [inhibitor, full curve, poor fit]	
CC1CCc2nn(CC(=O)NCc3ccc(F)cc3)cc2C1 (stereo not given)	inconclusive: 100 µM [inhibitor, partial curve, poor fit]	
Cc1ccc(S(=O)(=O)N2CCN(C(=O)COC(=O)Cc3ccc(F)cc3)CC2)c(C)c1		inactive: 66.8%
